# Measured values: ChEMBL document CHEMBL1156829
# In all, about 5,400 compounds were measured (“IFI”: median about 2, highest 2% from about 22 on). The list shows a part of the results.
# Assay: NOVARTIS: Inhibition Frequency Index (IFI) - the number of HTS assays where a compound showed > 50% inhibition/induction, expressed as a percentage of the number of assays in which the compound was tested.
# Format: functional
row,Structure (SMILES),IFI [%]
1,CC1(C)Oc2ccc3ccc(=O)oc3c2CC1=NNC(N)=S,3.85
2,O=c1c2c3c(sc2ncn1CCCc1ccccc1)CC(N1CCC(N2CCCCC2)CC1)CC3 (configuration not stated),2.24
3,CC(=O)N1c2ccccc2CC1C(=O)NCc1cccc(Cl)c1 (configuration not stated),0
4,Cc1cc(NCCc2ccccc2)nc2cc(O)ccc12,2.27
5,O=C(c1ccc([N+](=O)[O-])cc1)c1ccc(Cl)c(Cl)c1,0
6,CCCCc1ccc(Nc2ncnc3sc4c(c23)CCCC4)cc1,0
7,CC(=O)Nc1ccc(Oc2ccc(C(c3ccccc3)(c3ccccc3)c3ccc(Oc4ccc(NC(C)=O)cc4)cc3)cc2)cc1,1.56
8,COc1ccc(C(=O)C[n+]2cc(-c3ccc(OC)cc3)n3c2CCC3)cc1,4.88
9,Cc1nnc(SCC(=O)NCc2ccco2)n1-c1ccc(F)cc1,0
10,O=C(Nc1ccc(C2=NCCN2)c(Cl)c1)c1ccc(C(=O)Nc2ccc(C3=NCCN3)c(Cl)c2)cc1,0
11,CCCCCCCn1c2c(c(=N)c3ccccc31)CCC2,13.6
12,O=c1cc(NC2CCN(CCCc3ccccc3)CC2)c2cc(Cl)ccc2o1,0
13,CC(C)CNC(=O)c1cnc(NCCCn2ccnc2)nc1NCC1CCCCC1,0.962
14,CSc1ccc(Cl)c(Cl)c1,6.17
15,CCCCSCC(O)CN1CCCCC1 (configuration not stated),0
16,Cc1cc(NC(=O)C2c3ccccc3C(=O)N(CC(C)C)C2c2cccs2)no1 (configuration not stated),0
17,CCN(CC)C(=O)CSc1nnc(-c2ccccn2)n1-c1ccc(OC)cc1,3.64
18,c1ccc(-c2ccc(-c3ccccn3)nc2)nc1,15.9
19,Cc1ccccc1/C=C1/SC(=Nc2ccccc2)NC1=O,3.45
20,O=C(Nc1cccc(Cl)c1)Nc1cc(C(F)(F)F)cc(C(F)(F)F)c1,12.5
21,Cc1nc2ccc(NC(=O)C3CC3)cc2c(=O)n1Cc1ccc(Cl)cc1,3.39
22,Cc1cc(C(=O)N2CCOc3c(cc(-c4csc5ccccc45)cc3OCCc3ccccn3)C2)n(C)n1,1.92
23,CCN1/C(=C/c2cccc[n+]2C)Sc2cc(NC(C)=O)ccc21,0

row,Structure (SMILES),IFI [%]
1,CCN(CC)Cc1cc2ccc(C)cc2n(CC(=O)OC)c1=O,1
2,Cc1c(Cl)cccc1N1C(=O)C2C3c4ccccc4C(c4ccccc43)C2C1=O (configuration not stated),0
3,CC(CCCO)Nc1ccnc2cc(Cl)ccc12 (configuration not stated),4.88
4,Oc1ccc(-c2ccccc2)cc1CN1CCCCC1,0
5,CCOC(=O)c1c(CNC)n(C)c2cc(Br)c(O)cc12,0
6,CCOC(=O)c1c(NC(=O)CCC(=O)OC)sc2c1CC(C)(C)SC2,1.22
7,CCOc1ccc(NC(=O)c2ccc(F)c(S(=O)(=O)NC3CCCC(C)C3C)c2)cc1 (configuration not stated),0
8,Cc1cc(C(=O)Nc2cnn(Cc3ccc(Cl)cc3Cl)c2)no1,0
9,COc1cc(CNc2ccc(N3CCCCC3)cc2)ccc1OCc1ccccc1F,2.78
10,O=C(NCCc1ccccc1)C(=O)NN=Cc1ccccc1,0
11,COC(=O)NCCNC(=O)COC(c1cccs1)c1cccnc1Cl (configuration not stated),1.94
12,Cc1cccn2c(=O)c3cc(C(=O)NCc4ccco4)c(=N)n(CCc4ccccc4)c3nc12,7.81
13,CCN(CC)CCN(Cc1cc2cc(OC)ccc2[nH]c1=O)C(=S)Nc1cccc(Cl)c1,7.14
14,Clc1cc(C=NNC2=NCCCN2)cc(Cl)n1,0
15,Cc1cccn2c(=O)c3cc(C(=O)NC4CCCC4)c(=N)n(CCc4ccccc4)c3nc12,6.76
16,COCCN(CC(O)CNC(=O)c1ccc2ccccc2n1)S(=O)(=O)c1c(C)noc1C (configuration not stated),1.96
17,COc1cccc(CN2CCN(C(=O)c3c(C)noc3C)[C@@H](C)C2)c1,0
18,COc1ccc2nc(C)cc(NN=Cc3cccs3)c2c1,15.4
19,CCN(CC)c1ccc(NCc2ccc3c(c2)OCO3)cc1,2.98
20,CC1CC(C)CN(S(=O)(=O)c2ccc(C(=O)Nc3ccc(-c4nc5ccccc5o4)cc3)cc2)C1 (configuration not stated),3.23
21,CCN(CCN1CCN(S(=O)(=O)c2cc(Cl)ccc2Cl)CC1)CC1=CCC2CC1C2(C)C (configuration not stated),1.85
22,CC(=NNC(=O)c1ccc(C)cc1)c1ccccn1,0
23,CCCn1c(SCCNC(=O)/C=C/c2ccccc2)nc(-c2ccccc2)c1-c1ccccc1,0.926

row,Structure (SMILES),IFI [%]
1,CN1CCN(c2cc(-c3ccncc3)nc(-c3cccnc3)n2)CC1,0
2,CCN1C(=Cc2sc3cc(NC(C)=O)ccc3[n+]2CC)C=Cc2cc(C)ccc21,7.69
3,COC(CNc1cc(-c2ccccn2)nc(-c2ccccn2)n1)OC,7.69
4,CC(C)c1nc(N2CCN(C(=S)NCc3ccccc3)CC2)c(C#N)c2c1COC(C)(C)C2,0
5,CCCCCCCCC(=O)Oc1ccccc1-c1nc2cc(C)ccn2c1NC(C)(C)CC(C)(C)C,4.63
6,COc1ccc(C2=NN(C(=O)CCC(=O)O)C(c3ccccc3F)C2)cc1 (configuration not stated),0
7,CC(C)CN1C(=O)c2ccccc2C(C(=O)Nc2ccc(CN3CCC(C)CC3)cc2)C1c1cccs1 (configuration not stated),3.03
8,CCC(c1nc2ccccc2c(=O)n1-c1ccccc1OC)N(CCc1ccccc1)C(=O)c1cccc(OC)c1 (configuration not stated),3.67
9,O=C(NCCCCCCNC(=O)Nc1nc(-c2ccc(F)cc2)cs1)Nc1nc(-c2ccc(F)cc2)cs1,3.17
10,CCOC(=O)C1=C(C)NC2=C(C(=O)CC(c3ccc(OC)cc3)C2)C1c1cccs1 (configuration not stated),0
11,CN(C)CCNc1cc(-c2ccccc2)nc2ccccc12,1.6
12,O=c1c2c([nH]c3ccccc13)CCCCCC2,0
13,CCOc1ccc(Nc2nc(N3CCCCC3)nc(N3CCCCC3)n2)cc1,0
14,CN1CCN(c2nc(NN=Cc3ccc(O)cc3)nc(Nc3ccc([N+](=O)[O-])cc3)n2)CC1,7.69
15,COc1cc(NC(C)CCCN(Cc2ccc(OC)c(OC)c2)C(=O)CCC2CCCC2)c2ncccc2c1 (configuration not stated),3.01
16,CCCOC(=O)C1=C(C)NC2=C(C(=O)CC(c3ccc(Cl)cc3)C2)C1c1ccc(Br)cc1 (configuration not stated),3.57
17,CCN(CC)c1ccc(N=Cc2ccccc2[N+](=O)[O-])cc1,10.3
18,Nc1noc2cccc(OC3CCNCC3)c12,4.17
19,CCCCCCc1ccc(/C(C=[N+](C)C)=C\N(C)C)cc1,21.4
20,CC1(C)N=C(N)N=C(N)N1c1ccc(Br)cc1,4.92
21,COc1cccc(CCN2Cc3ccc(C(=O)NC(C)C)cc3N=C2c2ccc(C)cc2)c1,3.66
